Article PMC4336329 (PLoS ONE, 2015)
About 2,200 (0.71%) of roughly 310,000 compounds showed an effect of 50% or more. The effect is printed as a negative number. The list shows a part of the results.

These molecules were tested against human ether-à-go-go-related gene (hERG) potassium channel (human, UniProt Q12809) (assay: primary screen, population patch clamp on CHO cells stably expressing hERG).
Chain of human ether-à-go-go-related gene (hERG) potassium channel (Q12809 whole entry, looked up): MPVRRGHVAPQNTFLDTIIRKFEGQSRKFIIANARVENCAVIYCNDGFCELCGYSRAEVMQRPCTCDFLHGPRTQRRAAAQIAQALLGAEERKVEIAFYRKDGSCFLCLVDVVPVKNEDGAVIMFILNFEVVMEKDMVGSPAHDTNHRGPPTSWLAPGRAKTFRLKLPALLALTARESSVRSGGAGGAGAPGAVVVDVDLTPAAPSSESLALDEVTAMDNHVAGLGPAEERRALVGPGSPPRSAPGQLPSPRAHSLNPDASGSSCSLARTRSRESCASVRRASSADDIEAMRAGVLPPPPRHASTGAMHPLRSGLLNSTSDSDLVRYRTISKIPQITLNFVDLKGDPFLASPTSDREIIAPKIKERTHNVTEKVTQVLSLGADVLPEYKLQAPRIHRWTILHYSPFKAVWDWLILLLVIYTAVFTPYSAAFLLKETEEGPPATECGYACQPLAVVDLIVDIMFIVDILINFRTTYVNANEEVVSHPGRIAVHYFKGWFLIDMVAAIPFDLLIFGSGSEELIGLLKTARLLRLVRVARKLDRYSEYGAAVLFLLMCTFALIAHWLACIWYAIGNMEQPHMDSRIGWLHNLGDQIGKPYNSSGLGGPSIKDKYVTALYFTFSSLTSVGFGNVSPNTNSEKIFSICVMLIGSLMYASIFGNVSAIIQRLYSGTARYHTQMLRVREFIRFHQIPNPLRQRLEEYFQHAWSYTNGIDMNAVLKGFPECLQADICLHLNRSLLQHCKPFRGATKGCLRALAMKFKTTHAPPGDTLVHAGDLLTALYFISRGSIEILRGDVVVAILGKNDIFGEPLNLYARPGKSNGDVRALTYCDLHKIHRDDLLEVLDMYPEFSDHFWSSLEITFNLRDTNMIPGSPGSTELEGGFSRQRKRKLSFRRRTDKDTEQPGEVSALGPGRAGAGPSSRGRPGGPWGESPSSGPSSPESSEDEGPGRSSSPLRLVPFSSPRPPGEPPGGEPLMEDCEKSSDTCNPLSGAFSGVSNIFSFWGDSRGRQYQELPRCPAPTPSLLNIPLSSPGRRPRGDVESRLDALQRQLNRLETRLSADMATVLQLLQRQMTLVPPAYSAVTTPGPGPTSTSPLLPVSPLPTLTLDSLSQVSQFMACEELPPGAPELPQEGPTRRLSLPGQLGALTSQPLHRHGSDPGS
In the case of `COc1ccc(Br)cc1/C=N/NC(=O)c1cc(OC)c(OC)c(OC)c1`, the “hERG current change (%, negative = inhibition) at 1uM” value is reported as 14.2%. For `CC(=O)C1C(=O)c2c(cccc2[N+](=O)[O-])C1=Nc1ccccc1C` (centres unmarked), the “hERG current change (%, negative = inhibition) at 1uM” value was 11%. For `COc1ccccc1C(CNC(=O)c1cccc(NS(=O)(=O)c2ccc(Br)cc2)c1)N(C)C` (centres unmarked), the “hERG current change (%, negative = inhibition) at 1uM” value was -6.25%. For `O=C1c2ccccc2C(=O)N1CC(O)Cn1nnc2ccccc21` (centres unmarked), the “hERG current change (%, negative = inhibition) at 1uM” value was 10.4%. With `CC(C#N)Sc1nnc(-c2ccccc2F)n1C1CC1` (centres unmarked) the “hERG current change (%, negative = inhibition) at 1uM” value was 17%. `Cc1ccccc1CC(=O)N1CC(C)OC(C)C1` (centres unmarked) was tested, and the “hERG current change (%, negative = inhibition) at 1uM” value was 12.8%. In the case of `C[N+]1=C2CCCCCN2C(O)(c2ccccc2)C1.[I-]` (centres unmarked), the “hERG current change (%, negative = inhibition) at 1uM” value is reported as 11.8%. For `Cn1cc(NC(=O)OCc2ccc(Cl)cc2)c(C(F)(F)F)n1`, the “hERG current change (%, negative = inhibition) at 1uM” value was 12.9%. With `COC(=O)c1cc(NC(=O)CN2CCC(C(N)=O)(N3CCCCC3)CC2)cc(C(=O)OC)c1` the “hERG current change (%, negative = inhibition) at 1uM” value was 5.65%. `CC(C)CCNC(=O)C(C)N(Cc1ccc(F)cc1)C(=O)c1ccc(CN2CCOCC2)o1` (centres unmarked) was tested, and the “hERG current change (%, negative = inhibition) at 1uM” value was 11.9%. In the case of `C[C@H]1CC[C@@H]2[C@@H](C)[C@H]3[C@H](C[C@H]4[C@@H]5CC=C6C[C@@H](O[C@@H]7O[C@H](CO)[C@H](O)[C@H](O[C@@H]8O[C@H](CO)[C@@H](O)[C@H](O)[C@H]8O)[C@H]7O[C@@H]7O[C@@H](C)[C@H](O)[C@@H](O)[C@H]7O)CC[C@]6(C)[C@H]5CC[C@]34C)N2C1`, the “hERG current change (%, negative = inhibition) at 1uM” value is reported as 13.4%. With `CCc1ccccc1OCC(=O)N(CC)CC(=O)NCc1ccc(F)cc1` the “hERG current change (%, negative = inhibition) at 1uM” value was 5.82%. For `COc1ccc(-c2noc(CSc3nc4sc(C)c(C)c4c(=O)n3-c3ccccc3)n2)cc1`, the “hERG current change (%, negative = inhibition) at 1uM” value was 5.01%. `S=C(NCc1ccccc1)N1CCN(c2ccccc2)CC1` was tested, and the “hERG current change (%, negative = inhibition) at 1uM” value was 12.4%. In the case of `CC(C)(C)c1ccc(C(=O)N2CCC(C(=O)NC3CC3)CC2)cc1`, the “hERG current change (%, negative = inhibition) at 1uM” value is reported as 8.83%. In the case of `NC1=NC2(CCCC2)n2c(nc3ccccc32)N1`, the “hERG current change (%, negative = inhibition) at 1uM” value is reported as 8.12%. With `CC(C)[C@@H](C(=O)N1CCN(Cc2ccc3c(c2)OCO3)CC1)n1nnc2ccccc2c1=O` the “hERG current change (%, negative = inhibition) at 1uM” value was 6.79%. With `CC(=O)c1cccc(OCCCOc2cccc3cccnc23)c1` the “hERG current change (%, negative = inhibition) at 1uM” value was 10.6%. `COc1cc(OC)cc(C(=O)N2CCN(S(=O)(=O)c3ccc(Cl)s3)CC2)c1` was tested, and the “hERG current change (%, negative = inhibition) at 1uM” value was -1.92%. `COc1cc(OC)cc(-n2c3nc4ccccc4nc3c3c(=O)n(CC4CCCO4)cnc32)c1` (centres unmarked) was tested, and the “hERG current change (%, negative = inhibition) at 1uM” value was 6.72%. For `O=C(Nc1ccc2c(c1)OCCO2)c1ccc(Br)s1`, the “hERG current change (%, negative = inhibition) at 1uM” value was 12.5%. `COc1ccc(CCN(C)C2CCCN(S(=O)(=O)C(C)C)C2)cc1OC` (centres unmarked) was tested, and the “hERG current change (%, negative = inhibition) at 1uM” value was 10.6%. With `O=C(Cc1ccccc1)NCC(=O)N/N=C/c1cccnc1` the “hERG current change (%, negative = inhibition) at 1uM” value was 15.4%. For `Cc1[nH][nH]c(=O)c1C(c1c(C)[nH][nH]c1=O)c1cn(Cc2cccc3ccccc23)c2ccccc12`, the “hERG current change (%, negative = inhibition) at 1uM” value was 13.9%. In the case of `Cc1[nH]n(C(C)(C)C)c(=O)c1Sc1ccccc1`, the “hERG current change (%, negative = inhibition) at 1uM” value is reported as 5.51%. `Cc1cc(C(=O)NC2CCCc3ccccc32)no1` (centres unmarked) was tested, and the “hERG current change (%, negative = inhibition) at 1uM” value was 6.77%. With `COc1cc(/C=N/n2cnnc2)ccc1Oc1nc(Cl)ncc1F` the “hERG current change (%, negative = inhibition) at 1uM” value was 1.59%. `Oc1ccc(Br)cc1-c1nc2cnccn2c1NC1CCCC1` was tested, and the “hERG current change (%, negative = inhibition) at 1uM” value was 7.47%. `CC(=O)N1CCN(S(=O)(=O)c2cccc(C(=O)Nc3ccc(C)cn3)c2)CC1` was tested, and the “hERG current change (%, negative = inhibition) at 1uM” value was 0.445%. For `CN(CCO)S(=O)(=O)c1ccc2c(c1)C(=O)c1cc(S(=O)(=O)N(C)CCO)ccc1-2`, the “hERG current change (%, negative = inhibition) at 1uM” value was 11.3%. In the case of `CCOC(=O)c1cc2c(nc1C)-c1cc(Cl)cc(Cl)c1OC2O` (centres unmarked), the “hERG current change (%, negative = inhibition) at 1uM” value is reported as 6.68%. With `CC(=O)c1ccc(N2CCN(C(=O)/C=C/c3cccs3)CC2)cc1` the “hERG current change (%, negative = inhibition) at 1uM” value was -15.8%. `NC(CCCCCP(=O)(c1ccccc1)c1ccccc1)C(=O)O` (centres unmarked) was tested, and the “hERG current change (%, negative = inhibition) at 1uM” value was 7.93%. For `CN(C)c1oc(-c2ccccc2Cl)nc1P(=O)(c1ccccc1)c1ccccc1`, the “hERG current change (%, negative = inhibition) at 1uM” value was 11.1%. With `N#C/C(=C\c1ccco1)C(=O)Nn1cnnc1` the “hERG current change (%, negative = inhibition) at 1uM” value was 13.7%. With `CC1CCC(C(=O)NC(C(=O)NCCCN2CCOCC2)C(C)C)CC1` (centres unmarked) the “hERG current change (%, negative = inhibition) at 1uM” value was -5.74%. For `CN(c1ccc(C(=O)NCCSCc2ccc(Cl)cc2)cc1)S(=O)(=O)c1ccccc1`, the “hERG current change (%, negative = inhibition) at 1uM” value was 14.1%. `Cc1ccc(C(=O)CSc2nnc(-c3ccccc3N)n2C)cc1` was tested, and the “hERG current change (%, negative = inhibition) at 1uM” value was 4.54%. `Nc1nccnc1C(=O)OCC(=O)NNC(=O)c1ccccc1` was tested, and the “hERG current change (%, negative = inhibition) at 1uM” value was 4.97%. For `COc1cccc(CNC(=O)CCC2CCCN(C(=O)c3cc4ccccc4o3)C2)c1` (centres unmarked), the “hERG current change (%, negative = inhibition) at 1uM” value was -3.08%. With `CSc1nc(NCCCN(C)C)c2c3c(sc2n1)CN(C)CC3` the “hERG current change (%, negative = inhibition) at 1uM” value was 4.72%. `Cc1ccc(S(=O)(=O)C(C#N)c2nc3ccccc3nc2N2CC(C)OC(C)C2)cc1C` (centres unmarked) was tested, and the “hERG current change (%, negative = inhibition) at 1uM” value was 11.7%. With `Cc1cccc(N2CCN(S(=O)(=O)c3ccc4c(c3)CCC(=O)N4)CC2C)c1` (centres unmarked) the “hERG current change (%, negative = inhibition) at 1uM” value was -13.4%. `N#Cc1cccc(S(=O)(=O)N2CCN(c3ccnc4cc(Cl)ccc34)CC2)c1` was tested, and the “hERG current change (%, negative = inhibition) at 1uM” value was -57.2%. For `CC1=C(C(=O)OC(C)C)C(c2ccc3c(c2)OCO3)NC(=O)N1` (centres unmarked), the “hERG current change (%, negative = inhibition) at 1uM” value was 12.5%. For `COc1ccc(C(=O)NCc2nnc(SCC(=O)NCCc3ccccc3)o2)cc1`, the “hERG current change (%, negative = inhibition) at 1uM” value was 5.65%. `CC(=O)Nc1ccc(NC(=O)C2CCCN2S(=O)(=O)c2cccc(C(F)(F)F)c2)cc1` (centres unmarked) was tested, and the “hERG current change (%, negative = inhibition) at 1uM” value was -6.71%. `CCCCC(=O)NC(c1ccc(Cl)cc1Cl)c1ccc2cccnc2c1O` (centres unmarked) was tested, and the “hERG current change (%, negative = inhibition) at 1uM” value was 11.3%. With `CCOC(=O)Cc1csc(Nc2c(C)n(C)n(-c3ccccc3)c2=O)n1` the “hERG current change (%, negative = inhibition) at 1uM” value was 3.31%. In the case of `CC1=CC(=O)C(C(C)C)=CC1=NC(=O)c1ccc(C)cc1`, the “hERG current change (%, negative = inhibition) at 1uM” value is reported as 15.1%. For `CN(CCC#N)C(=O)COC(=O)c1ccccc1OCc1ccccc1Cl`, the “hERG current change (%, negative = inhibition) at 1uM” value was 6.79%. With `COC(=O)C(Cc1c[nH]c2ccccc12)NC(=O)C(C)C` (centres unmarked) the “hERG current change (%, negative = inhibition) at 1uM” value was 11.4%. With `O=C(Nc1cccc(-c2nc3ccccc3[nH]2)c1)c1cccc(NC(=O)c2ccco2)c1` the “hERG current change (%, negative = inhibition) at 1uM” value was 12.3%.
